Assay results published in PubChem BioAssay AID1347165 (National Center for Advancing Translational Sciences (NCATS), 2019).
Where “and” joins values, the source holds several entries; their conditions need not be identical. Identical values can stand only once. Out of some 220,000 compounds screened, about 5,700 (2.6%) were called active. The shares of active, inactive and inconclusive entries below differ from those in the screen. Calls follow the shape of the dose curve; as a rule, active = well fitted inhibition curve with a large enough effect; inconclusive = small, poorly fitted or top-dose-only effect; inactive = no such curve, though single readings can be large or run the other way. A potency beside an inconclusive call is a rough fit, not a confirmed value.

molecular target: Lysine-specific demethylase 5B (Homo sapiens) (UniProt Q9UGL1); experiment: Primary screen for KDM5B Histone Demethylases FDH-coupled qHTS; settings: FDH-coupled NADH fluorescence (FDH is formaldehyde dehydrogenase); series mostly up to 57.7 µM; also: nearly all actives have a fitted effect of over 70% in size
UniProt Q9UGL1, sequence (Q9UGL1 whole entry, looked up): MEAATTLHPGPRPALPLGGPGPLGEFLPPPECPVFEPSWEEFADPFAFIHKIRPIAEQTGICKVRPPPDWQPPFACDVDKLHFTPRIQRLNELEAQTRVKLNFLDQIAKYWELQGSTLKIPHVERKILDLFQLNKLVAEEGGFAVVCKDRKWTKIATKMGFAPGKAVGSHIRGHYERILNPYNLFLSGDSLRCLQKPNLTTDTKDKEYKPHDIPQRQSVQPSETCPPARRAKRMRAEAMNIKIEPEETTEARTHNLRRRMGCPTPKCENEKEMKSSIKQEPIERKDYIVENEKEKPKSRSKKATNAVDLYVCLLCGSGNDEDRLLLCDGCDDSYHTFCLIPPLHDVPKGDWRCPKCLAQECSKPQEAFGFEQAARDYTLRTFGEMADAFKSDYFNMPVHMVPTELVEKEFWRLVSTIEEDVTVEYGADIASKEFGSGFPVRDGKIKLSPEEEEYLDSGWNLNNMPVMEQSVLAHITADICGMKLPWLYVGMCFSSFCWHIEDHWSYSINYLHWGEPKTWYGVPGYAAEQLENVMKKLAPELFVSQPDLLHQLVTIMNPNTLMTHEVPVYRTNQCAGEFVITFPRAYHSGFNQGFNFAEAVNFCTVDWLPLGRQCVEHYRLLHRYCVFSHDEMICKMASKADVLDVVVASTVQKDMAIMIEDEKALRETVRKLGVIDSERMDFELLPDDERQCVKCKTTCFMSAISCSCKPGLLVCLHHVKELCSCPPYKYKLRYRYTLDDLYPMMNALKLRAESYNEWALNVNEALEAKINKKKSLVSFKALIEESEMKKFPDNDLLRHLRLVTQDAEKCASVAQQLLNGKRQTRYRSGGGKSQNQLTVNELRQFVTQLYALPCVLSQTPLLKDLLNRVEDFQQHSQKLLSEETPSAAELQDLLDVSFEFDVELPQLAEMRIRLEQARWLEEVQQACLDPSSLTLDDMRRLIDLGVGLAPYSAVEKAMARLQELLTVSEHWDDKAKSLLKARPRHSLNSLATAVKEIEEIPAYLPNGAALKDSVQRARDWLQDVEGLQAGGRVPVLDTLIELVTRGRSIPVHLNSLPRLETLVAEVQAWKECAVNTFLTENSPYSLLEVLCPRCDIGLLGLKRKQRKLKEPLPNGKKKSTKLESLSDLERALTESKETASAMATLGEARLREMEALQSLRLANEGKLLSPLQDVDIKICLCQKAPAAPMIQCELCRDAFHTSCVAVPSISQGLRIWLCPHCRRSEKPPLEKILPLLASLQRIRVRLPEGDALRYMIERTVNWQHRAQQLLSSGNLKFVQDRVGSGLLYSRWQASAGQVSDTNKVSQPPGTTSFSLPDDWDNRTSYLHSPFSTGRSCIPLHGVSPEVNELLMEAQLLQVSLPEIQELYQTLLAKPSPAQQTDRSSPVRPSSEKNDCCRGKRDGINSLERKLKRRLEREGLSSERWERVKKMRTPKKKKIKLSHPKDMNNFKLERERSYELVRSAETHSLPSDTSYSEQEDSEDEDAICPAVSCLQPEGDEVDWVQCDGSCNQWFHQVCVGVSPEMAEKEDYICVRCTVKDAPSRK
In short: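 Measured: NADH fluorescence change, 30 min, RT. System: KDM5BΔAP 200 nM final, H3K4me3 peptide, α-KG, Fe(II), ascorbate, NAD⁺ plus FDH, pH 7.5 HEPES. Compounds: titrated, 10 min pre-incubation with enzyme.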
Potency is read from the fitted curve at half-maximal effect; tags tell the direction and shape of the fitted curve.

Row | SMILES | Potency
1 | CNC(=O)CCn1ncc2cc(OCc3ccccc3-c3ccccc3F)ccc21 | inactive
2 | O=C(c1cc(CN2CCOCC2)on1)N1CCc2c(nc3cc(-c4ccccc4)[nH]n3c2=O)C1 | active: 28.2 µM
3 | COc1ccc(Oc2coc3cc(OCc4ccccc4F)ccc3c2=O)cc1 | inactive
4 | O=C(CSc1nc(-c2cccs2)nc2cc(=O)[nH]n12)Nc1ccccc1F | inconclusive: 44.7 µM [inhibitor, single point]
5 | CCCOc1ccc(C(=O)Nc2ccc(Cl)c(-c3nc4ncccc4o3)c2)cc1 | inconclusive: 28.2 µM [inhibitor, partial curve, poor fit]
6 | COc1ccc(NC(=O)Cn2cnc3ccc(S(=O)(=O)N4CCC(C)CC4)cc3c2=O)cc1OC | inconclusive: 12.6 µM [inhibitor, partial curve, poor fit]
7 | CCn1cc(-c2ccncc2)cc1C(=O)N1CCOCC1 | inactive
8 | COc1cccc(-c2nc(SCC(=O)NC3CCCC3)c(-c3ccccc3)[nH]2)c1 | inconclusive: 15.8 µM [inhibitor, partial curve, poor fit]
9 | Cc1nc2scc(CC(=O)NCC(C)C)n2c(=O)c1-c1cc(C)n(-c2ccc(F)cc2)n1 | inconclusive: 28.2 µM [inhibitor, partial curve, poor fit]
10 | CC(C)CC(NC(=O)c1cccc(N(C)C)c1)c1ccccc1 (configuration not stated) | inconclusive: 39.8 µM [inhibitor, single point]
11 | CCN(CC)Cc1cnc2c(C(=O)NC3CCCNC3)cnn2c1 (configuration not stated) | inconclusive: 28.2 µM [inhibitor, partial curve, poor fit]
12 | CC(=O)N1CC2(Cc3ccccc31)CN(C(=O)c1ccc(Cl)nc1)C2 | inconclusive: 39.8 µM [inhibitor, single point]
13 | Cc1cccc(NC(=O)c2cc(-c3ccco3)nc3ccccc23)n1 | inconclusive: 31.6 µM [inhibitor, partial curve, poor fit]
14 | O=C(O)c1cc(/C=C/c2csc(-c3ccc(Cl)cc3)n2)nc2ccccc12 | inconclusive: 1.78 µM [inhibitor, partial curve, poor fit]
15 | CC(C)CC(=O)C(C#N)C(=O)NCc1ccccc1 (configuration not stated) | inactive
16 | Cc1cccc(N(C)C(=O)Cc2nn(C)c(=O)c3ccccc23)c1C | inconclusive: 39.8 µM [inhibitor, single point]
17 | CCCC1=Nc2cc(C(=O)NCCc3ccccc3)ccc2Sc2ccc(C)cc21 | inconclusive: 2.24 µM [inhibitor, full curve, poor fit] and inconclusive: 20 µM [inhibitor, partial curve, poor fit]
